# Some of the results follow. Shown are side measurements of this screen, not its main read-out; they come without a call.
# Key:
# Assay in all cases: Primary Screen for Target Class Profiling of Small Molecule Inhibitors of Methyltransferases
# [1] = biological target: Glycine N-methyltransferase (Homo sapiens) (UniProt Q14749); conditions: purified enzyme, MTase-Glo SAH luminescence; measured here: GNMT inhibition; at 40 µM; stronger effect = lower value
# Method in brief: (§1)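 Each enzyme was reacted with SAM and its substrate, with compounds tested once at 40 uM; SAH formed was read by MTase-Glo luminescence.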
# [2] = biological target: Guanidinoacetate N-methyltransferase (Homo sapiens) (UniProt Q14353); conditions: purified enzyme, MTase-Glo SAH luminescence; measured here: GAMT inhibition; at 40 µM; stronger effect = lower value
# Method in brief: as §1
# [3] = biological target: Histamine N-methyltransferase (Homo sapiens) (UniProt P50135); conditions: purified enzyme, MTase-Glo SAH luminescence; measured here: HNMT inhibition; at 40 µM; stronger effect = lower value
# Method in brief: as §1
# [4] = biological target: Nicotinamide N-methyltransferase (Homo sapiens) (UniProt P40261); conditions: purified enzyme, MTase-Glo SAH luminescence; measured here: NNMT inhibition; at 40 µM; stronger effect = lower value
# Method in brief: as §1
# [5] = biological target: Phenylethanolamine N-methyltransferase (Homo sapiens) (UniProt P11086); conditions: purified enzyme, MTase-Glo SAH luminescence; measured here: PNMT inhibition; at 40 µM; stronger effect = lower value
# Method in brief: as §1
# On the % scale 0 is the no-effect control and ±100 the full control effect.
Structure (SMILES),"activity change, negative = inhibition [1] [%]","activity change, negative = inhibition [2] [%]","activity change, negative = inhibition [3] [%]","activity change, negative = inhibition [4] [%]","activity change, negative = inhibition [5] [%]"
c1ccc2c(N3CCNCC3)cccc2c1,-45.2,-8.84,-21,-17.9,-50.8
O=C(OC[C@H]1O[C@@H](Oc2ccc(O)cc2CO)[C@H](O)[C@@H](O)[C@@H]1O)c1ccccc1,-0.613,0.479,6.07,-10.9,-3.27
CC[C@H]1CN2CC[C@H]1C[C@@H]2[C@@H](O)c1ccnc2ccc(OC)cc12,5,9,-21.9,-6.03,-11.3
CO[C@H]1[C@H](O)[C@H](O[C@H]2CC[C@]3(C)C4CC[C@]5(C)[C@H](C6=CC(=O)OC6)CC[C@]5(O)C4CC[C@@H]3C2)O[C@@H](C)[C@@H]1O (stereo not given in full),-0.787,1.54,8.55,-8.72,2.35
COc1cc(NC(=O)N2Cc3ccccc3-n3cccc3C2c2ccc(F)cc2)cc(OC)c1 (stereo not given),-3.05,7.24,-1.24,-1.95,2.7
CN(C)CCNC(=O)C1CNCC12CCOCC2 (stereo not given),-3.36,-0.588,-0.357,-10.1,5.79
C[C@H]1CCCC(=O)CCC/C=C/c2cc(O)cc(O)c2C(=O)O1,–,-42.2,–,-48.2,-59.5
COc1ccc(OC)c(NC(=O)N2Cc3ccccc3-n3cccc3C2c2ccc(F)cc2)c1 (stereo not given),2.19,1.05,6.26,6.15,10.2
COC1CC(O[C@H]2CC[C@]3(C=O)C4CC[C@]5(C)[C@@H](C6=CC(=O)OC6)CC[C@]5(O)[C@@H]4CC[C@@H]3C2)OC(C)C1O[C@@H]1O[C@H](CO)[C@@H](O[C@@H]2O[C@H](CO)[C@@H](O)[C@H](O)[C@H]2O)[C@H](O)[C@H]1O (stereo not given in full),4.34,2.02,7.64,-8.83,2.11
CN1CCOC[C@H]2CCNC[C@H]21,-2.82,0.703,1.63,-1.8,-0.589
CCC(CC)c1cc([C@H]2CN3CC[C@H]2C[C@@H]3CNC(=O)C2CCC2)nc(-c2ccncc2)n1,-5.55,-12.7,-7.61,-15.7,-12.2
C[C@]12CC[C@@H](O[C@@H]3O[C@H](CO)[C@@H](O)[C@H](O)[C@H]3O)C[C@@]1(O)CCC1C2CC[C@]2(C)[C@@H](C3=CC(=O)OC3)CC[C@]12O (stereo not given in full),-1.57,-1.91,4.42,-14,4.21
C=CCN1C[C@@H](C)N([C@H](c2ccc(C(=O)N(CC)CC)cc2)c2cccc(OC)c2)C[C@@H]1C,2.05,15.7,12.2,-6.85,4.39
CCc1[nH]c2ccc(OC)cc2c1CCN(C)C,0.431,-4.74,-46.8,-14.8,-2.7
O=C(NC1CN2CCC1CC2)c1cc2ccoc2cn1 (stereo not given),6.13,9.43,11.7,-9.2,-2.62
O=C(Nc1ccccc1F)N1Cc2ccccc2-n2cccc2C1c1ccc(Cl)cc1 (stereo not given),2.99,1.54,0.241,-0.639,6.19
Cc1cccc(NC(=O)N[C@H]2CN(C)c3ccccc3C(c3ccccc3)=N2)c1,-6.97,-16.2,2.46,-36,-4.32
CCOCCCNC(=O)N1Cc2ccccc2-n2cccc2C1c1ccccc1Cl (stereo not given),8.89,0,7.73,6.72,3.44
CCCNC(=O)N1Cc2ccccc2-n2cccc2C1c1ccc(F)cc1 (stereo not given),-1.52,0.07,-0.051,-8.5,1.76
CCOC(=O)CNC(=O)N1Cc2ccccc2-n2cccc2C1c1ccccc1 (stereo not given),10.2,0.747,6.22,5.21,7.81
CCOc1ccc(C2c3cccn3-c3ccccc3CN2C(=O)Nc2ccc3c(c2)OCCO3)cc1 (stereo not given),2.16,0,3.15,3.52,7.09
C=CCN1CCC2(C)c3cc(O)ccc3C[C@H]1[C@H]2C,-0.319,–,-61.2,–,–
C=C(C)[C@H]1CN[C@H](C(=O)O)[C@H]1CC(=O)O,5.71,12.9,10.7,-2.83,2.68
NC1CC1c1ccccc1 (stereo not given),-3.8,3.31,-12.2,-7.58,-24.7
OC[C@H]1C[C@@H](NC2CCC2)[C@H](O)[C@@H]1O,-0.523,-0.976,1.72,3.78,-7.56
Cc1ccc(C2c3cccn3-c3ccccc3CN2C(=O)Nc2ccccc2C)cc1 (stereo not given),1.96,0.272,-5.4,-1.96,-1.45
O=C(NC1CCCC1)N1Cc2ccccc2-n2cccc2C1c1cc(F)cc(F)c1 (stereo not given),12.2,0,6.81,1.23,7.36
CC1=C2C(=O)C3[C@@H](CC=C4C[C@@H](O)CC[C@@]43C)[C@@H]2CC[C@]12O[C@@H]1C[C@H](C)CN[C@H]1[C@H]2C (stereo not given in full),4.37,8.57,3.09,-8.38,3.48
CCc1ccccc1NC(=O)N1Cc2ccccc2-n2cccc2C1c1ccc(N(C)C)cc1 (stereo not given),2.32,0.344,1.47,2.41,5.9
COCCCNC(=O)N1Cc2ccccc2-n2cccc2C1c1ccc(OC)cc1 (stereo not given),8.87,0,1.23,0.332,1.63

# Source: PubChem BioAssay AID1745853 (National Center for Advancing Translational Sciences (NCATS), 2022)
